Assay results taken from PubChem BioAssay AID1508623 (National Center for Advancing Translational Sciences (NCATS), 2021).
In all, about 48,000 compounds went through this assay and about 450 (0.94%) were called active. About 19% were inconclusive and are not listed. Calls follow the shape of the dose curve; as a rule, active = well fitted inhibition curve with a large enough effect; inconclusive = small, poorly fitted or top-dose-only effect; inactive = no such curve, though single readings can be large or run the other way. The list shows a part of the results.

experiment: Primary qHTS for Identification of Small Molecule Inhibitors of Huntingtin Promoter Activity; details: HEK293 HTT promoter firefly luciferase reporter (activity 0% = vehicle and -100% = no light), 24 h; series mostly up to 57.5 µM; activity change, negative = inhibition: at the top concentration; also: nearly all actives have a fitted effect of over 50% in size
Procedure, shortened: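 HEK293 cells carrying firefly luciferase reporters were seeded at 2,500 per well in Opti-MEM and cultured for 24 h. They were then treated with compounds at up to 57.5 uM final for 24 h at 37 degrees C before Dual-Glo luminescence readout.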

Activity change, negative = inhibition, inactive:
CCOC(=O)C1=C(O)C(=O)N(Cc2ccccc2)C1 -8.23%
CN(C)c1ccc(CNC(=O)C2CCN(S(=O)(=O)c3ccc4c(c3)oc(=O)n4C)CC2)cc1 -8.39%
COc1cccc(NC(=O)Cn2c(=O)n(Cc3ccc(C(=O)NCc4ccc5c(c4)OCO5)cc3)c(=O)c3ccccc32)c1 -1.12%
CCC(Oc1ccc(F)cc1)C(=O)Nc1nc2c(s1)CCCC2 (stereo not drawn) -20.9%
Cc1cnc(C(=O)O)c[n+]1[O-] 3.46%
COc1ccc(C(=O)N2c3nc(-c4ccco4)nn3C3(CCCCC3)[C@@H]3CCCC[C@@H]32)cc1OC -22.7%
CC(=O)Nc1cccc(O)c1 1.44%
O=C(NC1CCCCC1)c1ccc(Cn2c(SCc3ccccc3)nc3cccnc32)cc1 -1.86%
O=C(Nc1ccc(F)cc1)c1oc2ccccc2c1NC(=O)C1CCCCC1 -22%
Cc1cccc(C(=O)N2CCCCC2CCN2CCCCC2)c1 (stereo not drawn) -11.3%
O=C(O)C1(C(=O)O)CCC1.[NH2-].[NH2-].[Pt+2] -0.0181%
COCCCn1c(=O)c2sccc2n2c(CCCC(=O)Nc3ccc(F)c(F)c3)nnc12 -19%
COc1ccc(CNC(=O)CCC2N=C3c4ccccc4N=C(SCc4ccc(F)cc4)N3C2=O)cc1 (stereo not drawn) -21%
O=C(C1CCCCC1)N(Cc1cccnc1)c1nc2c(F)cc(F)cc2s1 -29.2%
CCN1CCOC(=O)C1CC(=O)Nc1ccc(C)c(Cl)c1 (stereo not drawn) -3.85%
Nc1c(C(=O)Nc2cccc(F)c2)sc2nc(-c3cccs3)ccc12 14.4%
Cc1cc(C)nc(NS(=O)(=O)c2ccc(NC(=O)c3cc(=O)c4ccc(C)c(C)c4o3)cc2)n1 15.9%
CN1CCN(C2(CNC(=O)c3ccc([N+](=O)[O-])cc3)CCCCC2)CC1 -11.7%
Cc1ccccc1-c1nc2scc(CCNC(=O)C(=O)Nc3ccc(F)cc3F)n2n1 1.94%
Nc1c(C(=O)NCCc2ccccc2)nnn1CC(=O)Nc1ccc(Cl)cc1 -10.8%
O=C(CSc1nc2c([nH]c3ccccc32)c(=O)n1-c1ccccc1)c1ccc(Cl)cc1 -3.63%
CCCn1c(CCC(=O)Nc2cccc(C)c2C)nc2cccnc21 -4.56%
Cc1ccc(Nc2c(-c3ccc(N4CCOCC4)cc3)nc3c(C)cccn23)cc1 -5.38%
COCCn1c(SCC(=O)Nc2cccc(C)c2C)nc2c(oc3ccccc32)c1=O -9.86%
COc1ccc(CCNC(=O)c2cc3c(-c4ccc(OC)c(OC)c4)nn(C)c3s2)cc1OC -18.8%
Cc1oc2ncn(C)c(=O)c2c1C(=O)N(Cc1ccccc1)C(C)C -3.78%
CCOC(=O)c1c(C)[nH]c(CCC(=O)NCc2cccc(OC)c2)c1C -11.9%
Cc1ccc(Cl)cc1N1CCN(C(=O)CCn2c(=O)c3cccn3c3cccnc32)CC1 -0.736%
CCc1ccccc1NC(=O)CSc1nc2ncccc2o1 -17.1%
COc1ccc(C(CNC(=O)Cc2ccc(Cl)cc2)N2CCOCC2)cc1 (stereo not drawn) -3.07%
O=C(CC(c1cccs1)N1Cc2ccccc2C1=O)Nc1ccc(F)cc1F (stereo not drawn) -16%
Cc1cccc(CC(=O)NC2CC(=O)N(c3ccccc3)C2)c1 (stereo not drawn) -14.4%
Cc1ccc(O)c(NC(=O)c2cc(-c3ccc(F)cc3)on2)c1 74.9%
Cc1cc2c(cc3c(SCc4cccc(F)c4)nnc(C)n32)o1 12%
Cc1cccc(C(=O)N2CCC(N3CCN(Cc4ccc(F)cc4)C(=O)C3=O)CC2)c1 -0.108% [at 11.5 µM]
COC(=O)c1ccc(Cl)cc1NC(=O)NC(C)c1c(-n2cccc2)sc(C)c1C (stereo not drawn) -27.5%
O=c1c2c3c(sc2n(Cc2ccccc2F)c(=O)n1-c1ccc(Cl)cc1)CCCC3 -4.81%
Cc1c(C)c2c(cc(C)c3c(-c4ccc(Br)cc4)coc32)oc1=O -3.38%
CCOC(=O)c1cccc(NC(=O)CCn2c(=O)oc3ccccc32)c1 -14.1%
CCC(Oc1ccccc1)C(=O)Nc1cccc(OCc2cc(=O)n3cccc(C)c3n2)c1 (stereo not drawn) -5.62%
Cc1ccc(CSc2nnc([C@@H](N)C(C)C)o2)cc1 -11.2%
CC(=O)c1ccc(NC(=O)Cn2c(=O)cc(C)c3c(C)nn(-c4cccc(F)c4)c32)cc1 -7.07%
CCOC(=O)c1c(C)[nH]c(C)c1S(=O)(=O)NCC(=O)Nc1cccc(SC)c1 -16.7%
COc1cccc(NC(=O)CSc2nc(C)c(Cc3ccccc3)c(=O)[nH]2)c1 -16.6%
CCN(CC)c1ccc(C(=O)NCc2nc3cccnc3n2Cc2ccc(C)cc2)cc1 -2.15%
Cc1ccc(C2N=C(N)Nc3nc4ccccc4n32)cc1 (stereo not drawn) -12.5%
Cc1cccc(-c2nc3c4c(-c5ccccc5)c(-c5ccccc5)oc4ncn3n2)c1 1.77%
Cc1cccc(NC(=O)Cn2cc(S(=O)(=O)N3CCCC3)c(S(=O)(=O)N3CCCC3)c2)c1C 3.34% [at 11.5 µM]
CSCCC(NS(=O)(=O)c1ccc2c(c1)oc(=O)n2C)C(=O)Nc1ccc(F)c(Cl)c1 (stereo not drawn) -17.2%
Cc1cccc(NC(=O)c2cnc3sc(N4CCCC4)nn3c2=O)c1C -0.532%
COc1ccc(NC(=O)c2c(NCc3cccc(F)c3)sc3c2CCC3)c(OC)c1 -20.3%
COc1cccc2sc(N(Cc3cccnc3)C(=O)c3ccco3)nc12 -17.5%
Cc1nn(C)c(C)c1S(=O)(=O)N(CC(=O)NCCc1ccc(Cl)cc1)c1ccc(C(C)C)cc1 -5.35%
COc1cc2c(cc1OC)C(=O)CC2 29.1%
COc1ccc(C)cc1NC(=O)C(=O)NCCc1sc(-c2cccc(C)c2)nc1C 4.5%
Cc1cc(C)cc(NC(=O)Cc2csc(COc3cccc(C)c3)n2)c1 -16.6%
CCCNC(=O)C1CCC(Cn2c(=O)c3sccc3n(CC(=O)NCc3ccccc3)c2=O)CC1 (stereo not drawn) -7.55%
CCOc1ccc(S(=O)(=O)N(CC(=O)Nc2ccc(OC)cc2OC)c2ccccc2)cc1 -0.135%
Cc1nn(CCCC(=O)NCc2ccccc2Br)c(=O)c2c1sc1ccccc12 -0.13%
O=C(CN1C=NS(=O)(=O)c2ccccc21)Nc1ccccc1F -7.28%
O=C(NCc1ccccc1F)C1CCCN(C(=O)N2CCOc3ccccc32)C1 (stereo not drawn) -26.8%
COc1ccc(OC)c(CNS(=O)(=O)c2ccc3c(c2)oc(=O)n3C)c1 -18.3%
Cc1cccc2nc(Cn3c(=O)n(-c4ccc(Cl)cc4)c(=O)c4c5c(sc43)CCC5)cc(=O)n12 -6.16%
O=C1CCc2ccccc2O1
COc1ccc(S(=O)(=O)N(CC(=O)N2CCc3ccccc3C2)c2ccc(C)cc2)cc1 -10.5%
CCn1cc(C(=O)NCCc2ccccc2)c(=O)c2cc(S(=O)(=O)N3CCCCCC3)ccc21 -17.5%
Cc1nn(C(C)C(=O)N2CCN(c3ccc(F)cc3)CC2)c(=O)c2c1sc1ccccc12 (stereo not drawn) -5.88%
CC1=C(C/C=C(\C)CCC[C@H](C)CCC[C@H](C)CCCC(C)C)C(=O)c2ccccc2C1=O 13.9%
Cc1cccc(C)c1NC(=O)C1CCCN1S(=O)(=O)c1ccccc1 (stereo not drawn) 0.102%
O=C(OCCOCCO)c1ccccc1Nc1cccc(C(F)(F)F)c1 -27.3%
CCc1ccc2ncc3c(-c4ccc(F)cc4)nn(CC(=O)NC4CCCCC4)c3c2c1 -6.93%
CCOC(=O)Cn1c(=O)n(-c2cccc(Cl)c2)c2nc(-c3ccccc3Cl)nc(C(N)=O)c21 -23.1%
CN(C)c1ccc(CNC(=O)Cc2ccc(NC(=O)N3CCCCc4ccccc43)cc2)cc1 -5.84%
Cc1ccccc1OC(=O)c1nc(SCc2ccccc2F)ncc1Cl -8.95%
Cc1c(C)n(Cc2ccccc2)c2ccc(C(=O)NCC(C)c3ccccc3)cc12 (stereo not drawn) -4.55%
Cc1ccc(N2CCN(S(=O)(=O)c3nnc(NC(=O)c4ccccc4)s3)CC2)cc1 -5.34%
COc1ccc(N2CCN(C(=O)c3cc4c(=O)oc5ccc(C)cc5c4s3)CC2)cc1 -8.55%
CCOC(=O)CNC(=O)c1cc2c(=O)oc3ccccc3c2s1 0.262%
CCOc1ccc(N2CC(NC(=O)c3ccc4c(c3)OCO4)CC2=O)cc1 (stereo not drawn) 1.06%
CCCCNc1nc2c(S(=O)(=O)c3ccc(C)cc3)nnn2c2ccsc12 -6.77%
Cc1ccc(C)c(N2CCN(c3nc4ccc(C)cc4nc3-n3nc(C)cc3C)CC2)c1 -1.35%
O=C(Nc1ccccc1C(=O)OCc1cc(=O)n2nc(C3CC3)sc2n1)c1ccc(Cl)cc1 5.32%
O=C(Cn1cnc2nc3c(cc2c1=O)CCCC3)Nc1ccc(F)cc1Cl -23%
CCOCCc1nnc(NC(=O)C(=O)c2cc(C)n(-c3ccc(C)c(C)c3)c2C)s1 -14.7%
Cc1cc(C)n(CCC(=O)Nc2ccc(Cl)cc2)n1 3.96%
COc1ccccc1CNC(=O)CSc1nc(-c2ccc(OC)c(OC)c2)cc(C(F)(F)F)n1 -0.121%
CCOc1ccc(CCNC(=O)c2ccc3c(c2)N(Cc2ccc(F)cc2)CCS3)cc1 -33.6%
COC(=O)c1sccc1S(=O)(=O)N(CC(=O)Nc1cc(C)ccc1C)c1ccc(C)c(C)c1 -24.1%
Cc1ccc(N2CC(NC(=O)c3ccc(S(=O)(=O)N(C)C)cc3)CC2=O)cc1C (stereo not drawn) -28.6%
CCC(C)NC(=O)c1ccc2c(c1)sc1nc(-c3ccc(OC)cc3)cn12 (stereo not drawn) 5.01%
O=C(CSc1nc2c([nH]c3ccccc32)c(=O)n1-c1cccc(Cl)c1)N1CCCC1 -15.4%
CCc1ccc2oc(-c3ccc(C)c(NC(=O)c4cc([N+](=O)[O-])ccc4N4CCOCC4)c3)nc2c1 -9.57%
CCCCc1ccc(-n2nc3ccc(NC(=O)c4cc5ccccc5o4)cc3n2)cc1 44.1%
COc1ccc(C(=O)NCCSc2c[nH]c3ccccc23)cc1OC -21.2%
Clc1ccc(CSc2ccc(-c3cccs3)nn2)cc1 22.8%
CSc1ncc(C(=O)Nc2cc(C)cc(C)c2)c(-c2ccccc2)n1 -10.4%
COc1ccc(-n2c(=O)c3c4c(sc3n(Cc3ccc(F)cc3)c2=O)CN(C(C)=O)CC4)c(OC)c1 -14.5%
CC(=O)N1CCc2c(sc3c2c(=O)n(Cc2ccccc2)c(=O)n3Cc2ccc(Cl)cc2)C1 4.07%
